Measurements reported in PubChem BioAssay AID504333 (National Center for Advancing Translational Sciences (NCATS), 2011).
Screen size: about 360,000 compounds; about 16,000 (4.4%) were called active. This list was built around the results that the source calls inconclusive (neither active nor inactive); the mix of calls is not that of the screen. The call rests on the fitted dose curve; in most records, active means well fitted inhibition curve with a large enough effect; inconclusive means small, poorly fitted or top-dose-only effect; inactive means no such curve, though single readings can be large or run the other way. A potency beside an inconclusive call is a rough fit, not a confirmed value.

Molecular target: Bromodomain adjacent to zinc finger domain protein 2B (Homo sapiens) (UniProt Q9UIF8)
Experiment: qHTS Assay for Inhibitors of BAZ2B; further: nearly all actives have a fitted effect of over 60% in size
Details: AlphaScreen BAZ2B-H3K14Ac peptide displacement; series mostly up to 114 µM
Summary of the method: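 BAZ2B 50 nM plus b-H3(5-23)K14Ac 50 nM, PBS pH 7.4/0.01% Tween-20, 30 min RT; compound added (max 110 uM), 30 min RT; streptavidin donor/Ni-chelate acceptor beads 10 ug/mL final, 20 min dark; AlphaScreen read.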
Potency means the concentration at half of the fitted maximal effect; tags describe the fitted curve by direction and shape.

UniProt Q9UIF8, sequence (Q9UIF8 whole entry, looked up, the tested form may be a part): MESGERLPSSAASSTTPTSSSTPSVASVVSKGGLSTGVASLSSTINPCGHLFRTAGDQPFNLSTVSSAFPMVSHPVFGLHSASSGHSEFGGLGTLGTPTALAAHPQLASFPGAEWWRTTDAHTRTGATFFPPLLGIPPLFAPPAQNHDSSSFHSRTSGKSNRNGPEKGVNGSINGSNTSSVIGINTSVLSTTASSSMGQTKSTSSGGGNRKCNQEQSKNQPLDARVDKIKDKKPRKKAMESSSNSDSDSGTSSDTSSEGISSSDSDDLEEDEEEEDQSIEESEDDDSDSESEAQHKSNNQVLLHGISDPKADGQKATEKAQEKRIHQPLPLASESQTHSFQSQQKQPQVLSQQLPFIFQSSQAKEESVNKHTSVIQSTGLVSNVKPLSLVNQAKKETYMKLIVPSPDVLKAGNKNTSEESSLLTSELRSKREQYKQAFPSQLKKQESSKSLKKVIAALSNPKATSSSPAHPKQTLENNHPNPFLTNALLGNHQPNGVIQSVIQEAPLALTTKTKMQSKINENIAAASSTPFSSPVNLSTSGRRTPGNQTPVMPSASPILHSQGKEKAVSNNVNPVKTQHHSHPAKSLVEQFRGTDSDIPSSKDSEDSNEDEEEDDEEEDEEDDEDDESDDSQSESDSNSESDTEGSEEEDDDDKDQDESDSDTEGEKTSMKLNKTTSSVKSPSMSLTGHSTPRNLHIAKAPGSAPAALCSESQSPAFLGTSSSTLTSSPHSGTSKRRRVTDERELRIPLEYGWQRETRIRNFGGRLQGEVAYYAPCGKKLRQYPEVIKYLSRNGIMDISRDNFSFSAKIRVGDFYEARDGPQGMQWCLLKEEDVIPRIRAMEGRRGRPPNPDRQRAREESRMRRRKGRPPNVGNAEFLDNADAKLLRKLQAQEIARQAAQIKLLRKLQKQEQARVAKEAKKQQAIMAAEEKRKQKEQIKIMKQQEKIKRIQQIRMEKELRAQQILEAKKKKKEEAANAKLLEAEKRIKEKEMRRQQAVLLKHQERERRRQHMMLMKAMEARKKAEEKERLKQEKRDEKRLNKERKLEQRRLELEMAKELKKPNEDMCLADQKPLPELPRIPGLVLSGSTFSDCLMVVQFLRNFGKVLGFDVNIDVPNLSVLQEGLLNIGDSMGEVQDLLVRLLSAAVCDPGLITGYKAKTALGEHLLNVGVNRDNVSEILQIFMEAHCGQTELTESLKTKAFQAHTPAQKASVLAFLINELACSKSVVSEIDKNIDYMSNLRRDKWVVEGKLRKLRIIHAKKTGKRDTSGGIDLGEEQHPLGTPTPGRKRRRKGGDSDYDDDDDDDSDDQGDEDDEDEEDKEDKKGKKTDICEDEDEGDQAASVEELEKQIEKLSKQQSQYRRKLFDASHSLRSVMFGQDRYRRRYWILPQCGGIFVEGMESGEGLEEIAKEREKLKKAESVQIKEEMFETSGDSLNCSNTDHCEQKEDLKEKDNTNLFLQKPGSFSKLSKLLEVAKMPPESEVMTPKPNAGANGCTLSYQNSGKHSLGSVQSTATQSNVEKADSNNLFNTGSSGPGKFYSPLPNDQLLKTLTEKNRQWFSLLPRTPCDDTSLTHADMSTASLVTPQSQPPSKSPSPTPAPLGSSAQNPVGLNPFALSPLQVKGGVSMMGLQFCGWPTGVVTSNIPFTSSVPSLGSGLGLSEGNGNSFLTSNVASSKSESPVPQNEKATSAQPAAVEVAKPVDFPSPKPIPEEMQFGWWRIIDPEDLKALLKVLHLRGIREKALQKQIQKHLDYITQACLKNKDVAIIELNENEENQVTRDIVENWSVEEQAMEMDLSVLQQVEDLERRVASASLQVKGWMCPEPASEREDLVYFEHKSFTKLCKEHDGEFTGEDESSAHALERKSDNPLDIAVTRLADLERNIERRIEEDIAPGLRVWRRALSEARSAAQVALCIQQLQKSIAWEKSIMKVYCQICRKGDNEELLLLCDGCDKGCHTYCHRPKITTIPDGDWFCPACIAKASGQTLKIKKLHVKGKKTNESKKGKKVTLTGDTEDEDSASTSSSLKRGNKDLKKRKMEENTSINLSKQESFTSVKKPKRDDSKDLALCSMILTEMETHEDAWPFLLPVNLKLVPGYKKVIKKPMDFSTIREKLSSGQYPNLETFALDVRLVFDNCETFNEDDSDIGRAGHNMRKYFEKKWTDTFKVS

Row | Compound | Potency
1 | CC1CCCCC1NC(=O)CN1c2cccc3cccc(c23)S1(=O)=O (stereo unspecified) | inactive
2 | COc1ccc(N2C(=O)/C(=C/c3ccc([N+](=O)[O-])cc3)C=C2c2ccccc2)cc1 | active: 2.24 µM
3 | CC(=O)Nc1ccc(NCC(O)COc2ccccc2)cc1 (stereo unspecified) | inconclusive: 89.1 µM [inhibitor, single point]
4 | Cc1cc(C)c(S(=O)(=O)/N=C2/C=C(SCC(=O)O)C(=O)c3ccccc32)cc1C | active: 35.5 µM
5 | CNS(=O)(=O)c1cn(CC(=O)N(C)Cc2ccccc2)cc1S(=O)(=O)NC | inactive
6 | CCOc1cccc2cc(C(=O)NCc3ccccc3)c(=N)oc12 | inactive
7 | C/C(=C\c1ccccc1)CN1CCC(C(=O)N2CCCCC2)CC1 | inconclusive: 89.1 µM [inhibitor, single point]
8 | Cc1[nH]c2ccccc2c1C1(O)C(=O)N(Cc2ccccc2Cl)c2ccccc21 (stereo unspecified) | inconclusive: 39.8 µM [inhibitor, partial curve]
9 | CCNc1cc(N2CCCC2)ccc1[N+](=O)[O-] | inconclusive: 31.6 µM [inhibitor, partial curve]
10 | COc1ccc(OC)c(NC(=O)CSc2nnc(Cc3cccn3C)n2-c2ccc(F)cc2)c1 | active: 50.1 µM
11 | O=C(O)c1ccc(NC(=S)Nc2ccccc2)cc1 | inactive
12 | C/C(CC(=O)Nc1ccccn1)=N\NC(=O)c1ccc2ccccc2c1 | inconclusive: 79.4 µM [inhibitor, single point]
13 | COc1ccc(CNc2oc(-c3ccccc3)nc2C#N)cc1 | active: 44.7 µM
14 | CCOc1ccccc1N1CCN(C(=O)c2ccc3[nH]c(C)c(C)c3c2)CC1 | active: 44.7 µM
15 | COc1ccc(OC)c(/C=N/c2oc(-c3ccco3)c(-c3ccco3)c2C#N)c1 | inactive
16 | CC1Cc2cc(S(=O)(=O)N3CCN(c4ccccc4F)CC3)ccc2N1C(=O)C1CCC1 (stereo unspecified) | inactive
17 | CCOC(=O)C1CCCN(/C=C2\SC(=S)N(CC)C2=O)C1 (stereo unspecified) | inconclusive: 79.4 µM [inhibitor, single point]
18 | CCC(CC)c1nc(C#N)c(NCc2ccccc2)o1 | inconclusive: 56.2 µM [inhibitor, single point]
19 | O=C(CCn1nc(-c2ccc(Cl)cc2)c2ccccc2c1=O)Nc1cccnc1 | inconclusive: 89.1 µM [inhibitor, single point]
20 | CC1(C)Oc2ccc3ccc(=O)oc3c2/C(=C/Nc2ccccc2)C1=O | inconclusive: 39.8 µM [inhibitor, full curve]
21 | O=C(Nc1ccc(-c2n[nH]c(=S)o2)cc1)c1ccccc1Cl | inactive
22 | Cc1ccnc2nc(C(=O)Nc3nc4ccccc4s3)nn12 | inactive
23 | CCCCOc1ccc(C(=O)N2CCN(CCc3ccncc3)CC2)cc1 | inconclusive: 89.1 µM [inhibitor, single point]
24 | O=c1ccc(NS(=O)(=O)c2ccc(Cl)cc2)cn1Cc1ccc(Cl)c(Cl)c1 | inconclusive: 44.7 µM [inhibitor, partial curve]

Row | Compound | Potency
25 | CC1CCN(C(=O)C(Cc2ccccc2)n2cccc2)CC1 (stereo unspecified) | inconclusive: 79.4 µM [inhibitor, single point]
26 | COc1ccc(C2=C(C=Nc3c(C)n(C)n(-c4ccccc4)c3=O)C(c3ccccc3C)c3ccccc3O2)cc1OC (stereo unspecified) | inconclusive: 89.1 µM [inhibitor, single point]
27 | CCCc1nn2c(=O)cc(COC(=O)c3cccc(NC(=O)COc4ccccc4C)c3)nc2s1 | inactive
28 | Cc1ccc(Nc2nc(-c3sc(NC(=O)c4ccco4)nc3C)cs2)cc1 | inconclusive: 44.7 µM [inhibitor, partial curve]
29 | CC(C)(C)C1CCC(=NNc2nc3ccccc3[nH]2)CC1 (stereo unspecified) | inconclusive: 17.8 µM [inhibitor, full curve]
30 | CCc1ccccc1N=C1S/C(=C/c2ccccc2OCC(=O)N2CCOCC2)C(=O)N1C | inconclusive: 22.4 µM [inhibitor, partial curve]
31 | Cc1ccc(-c2ccccc2NC(=O)C2C3C=CC(C3)C2C(=O)O)o1 (stereo unspecified) | active: 56.2 µM
32 | COc1ccc(OC)c(NC(=O)CSc2nnc(CNC(=O)c3ccco3)o2)c1 | inactive
33 | CCCCCCC(=O)N(O)C1CC(=O)N(c2ccc(F)cc2)C1=O (stereo unspecified) | inactive
34 | COc1ccc2c(c1)C(C)CC(C)(C)N2C(=O)NC1CCCCC1 (stereo unspecified) | inconclusive: 39.8 µM [inhibitor, partial curve]
35 | CCN(CC)C(=O)CSC1=N/C(=C/c2ccco2)C(=O)N1c1ccc(OC)c(Cl)c1 | inconclusive: 35.5 µM [inhibitor, full curve]
36 | O=C(/C(=N/N=C/c1ccc(O)c(O)c1)c1ccccc1)c1ccccc1 | active: 39.8 µM
37 | CCOC(=O)CN1C(=O)C(O)=C(C(C)=O)C1c1ccccc1 (stereo unspecified) | active: 79.4 µM
38 | Cc1ccccc1-c1nc(CS(=O)(=O)CC(=O)NCC(C)c2ccccc2)c(C)o1 (stereo unspecified) | inconclusive: 70.8 µM [inhibitor, single point]
39 | CCc1ccc(-c2nc(CN3CCC(C(=O)N4CCN(c5ccccn5)CC4)CC3)c(C)o2)cc1 | inconclusive: 44.7 µM [inhibitor, partial curve]
40 | O=C(NNc1nc2ccccc2s1)c1ccccc1F | inconclusive: 25.1 µM [inhibitor, full curve, poor fit]
41 | CN(C)c1ccc(NC(=O)c2sc(SCC(=O)Nc3nccs3)nc2N)cc1 | active: 39.8 µM
42 | CC(C)(Oc1ccc(Cl)cc1)C(=O)NC1=NN(c2ccccc2)C(=O)C1 | inconclusive: 79.4 µM [inhibitor, single point]
43 | CCc1ccc2nc(N(CCCN(C)C)C(=O)c3ccc(S(=O)(=O)N4CCCc5ccccc54)cc3)sc2c1 | inconclusive: 28.2 µM [inhibitor, partial curve]
44 | CN(Cc1ccccc1)C(=O)c1ccc(NC(=O)Cc2cccc(NC(=O)C3CCCN(C(=O)C4CCC4)C3)c2)cc1 (stereo unspecified) | inactive
45 | CCN1C(=O)[C@H]2[C@@H](c3ccccc3)N3C(=O)N(c4cccc(F)c4)C(=O)[C@@]3(CC(C)C)[C@H]2C1=O | inconclusive: 89.1 µM [inhibitor, single point]
46 | Cc1ccc(OCC(O)CN2CCN(CC(O)COC(C)C)CC2)c(C(C)(C)C)c1 (stereo unspecified) | inactive
47 | CC(C)c1ccc(C2/C(=C(/O)c3ccc(F)cc3)C(=O)C(=O)N2CCCN2CCOCC2)cc1 (stereo unspecified) | inconclusive: 79.4 µM [inhibitor, partial curve, poor fit]
48 | Cc1ccc(C(=O)NCc2ccc(N(C)C)cc2)cc1NC(=O)c1nsc2ccccc12 | inconclusive: 63.1 µM [inhibitor, partial curve, poor fit]

Row | Compound | Potency
49 | Cc1ccccc1NC(=O)c1nn(C)c(C(=O)Nc2ccccc2C)c1[N+](=O)[O-] | inactive
50 | COc1ccc(N=C2NC(=O)/C(=C/c3ccco3)S2)cc1 | active: 39.8 µM
51 | CC1CCC(NC(=O)c2ccc3c(c2)N(Cc2ccccc2)C(=O)c2ccccc2S3=O)CC1 (stereo unspecified) | inconclusive: 89.1 µM [inhibitor, single point]
52 | CCOC(=O)c1c(C)[nH]c(CCC(=O)Nc2cc(C)ccc2OC)c1C | inactive
53 | c1ccc(-c2ccc(-n3ccnc3)cc2)cc1 | inconclusive: 79.4 µM [inhibitor, single point]
54 | C/C(=N\Nc1ccc(C(=O)O)cc1)c1ccc2c(c1)Nc1ccccc1S2 | active: 50.1 µM
55 | CCCCN(CCCC)S(=O)(=O)c1ccc(C(=O)Nc2nnc(COC)o2)cc1 | inconclusive: 89.1 µM [inhibitor, single point]
56 | C=CCc1ccc(OCCCCN2CCC(C)CC2)c(OC)c1 | inconclusive: 89.1 µM [inhibitor, single point]
57 | COC(=O)c1ccc(CN2CCCC(CO)(Cc3ccccc3F)C2)cc1 (stereo unspecified) | inactive
58 | COc1ccc(/C=C(\NC(=O)c2ccc(OC)cc2)C(=O)N2CCCCC2)cc1 | inactive
59 | O=C(Nc1nc(-c2ccccc2)cs1)c1ccccc1NS(=O)(=O)c1ccc(F)cc1 | inconclusive: 70.8 µM [inhibitor, single point]
60 | CCOC(=O)C1=C(CSc2nc(-c3ccncc3)ccc2C#N)OC(N)=C(C#N)C1c1ccc(OC)cc1 (stereo unspecified) | inconclusive: 25.1 µM [inhibitor, full curve]
61 | COc1ccc(N)c2c1C(=O)c1ccccc1C2=O | active: 31.6 µM
62 | NCCCC[C@H](NC(=O)C1CCNCC1)c1nnc(CN)o1 | inconclusive: 79.4 µM [inhibitor, single point]
63 | Cc1ccc(N2CCN(CC3CC=CCC3)CC2)cc1 (stereo unspecified) | inconclusive: 89.1 µM [inhibitor, single point]
64 | O=C(CNCCO)N1CCc2ccccc21 | inconclusive: 100 µM [inhibitor, single point]
65 | O=[N+]([O-])c1cc([N+](=O)[O-])c(Oc2cccnc2Br)cc1NN1CCCCC1 | inconclusive: 8.91 µM [inhibitor, full curve]
66 | CC1CCCCC1NC(=O)COn1nnc2ccc(Cl)cc21 (stereo unspecified) | inactive
67 | CCCCOP(=O)(c1ccc(N(C)C)cc1)C(O)c1ccncc1 (stereo unspecified) | inconclusive: 100 µM [inhibitor, single point]
68 | CC1CC(CCN)(c2ccccc2)C(C)CN1C (stereo unspecified) | inactive
69 | Cn1ccc2cc(-c3ccc4ncnc(NCc5cccs5)c4c3)ccc21 | inconclusive: 89.1 µM [inhibitor, single point]
70 | CC1(CC(=O)N/N=C/c2cc([N+](=O)[O-])c(O)cc2O)OCCO1 | active: 50.1 µM
71 | O=C(Nc1cccc(S(=O)(=O)NC2=NCCCCC2)c1)c1cc(-c2ccco2)nc2ccccc12 | inconclusive: 44.7 µM [inhibitor, partial curve, poor fit]
